Test results published in PubChem BioAssay AID360 (National Center for Advancing Translational Sciences (NCATS), 2006).
Hit rate of the full screen: of about 48,000 compounds, about 550 (1.1%) were called active. Not shown: some 4% with an inconclusive outcome. No stated cut-off is given here; in the data, active means potency below about 15 µM; inconclusive means mostly about 16 µM to 33 µM; inactive means weaker than that. The list shows a part of the results.

What follows are compounds tested against Lysosomal acid glucosylceramidase (Homo sapiens) (UniProt P04062) (assay: Glucocerebrosidase). Conditions: purified enzyme, resorufin glucoside fluorescence (screen aimed at inhibitors), 20 min.
Procedure, shortened: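 Normal human glucocerebrosidase (0.2 nM final) was assayed with resorufin β-D-glucopyranoside (30 uM final) in 50mM citric acid/KH2PO4, 10mM sodium taurocholate, 0.01% tween-20, pH 5.9. Compounds were titrated; fluorescence (Ex 548, Em 600) read after 20 min at RT.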
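Further: the screen sought inhibitors.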
Potency means the concentration at half of the fitted maximal effect.

UniProt P04062, sequence (P04062 whole entry, looked up): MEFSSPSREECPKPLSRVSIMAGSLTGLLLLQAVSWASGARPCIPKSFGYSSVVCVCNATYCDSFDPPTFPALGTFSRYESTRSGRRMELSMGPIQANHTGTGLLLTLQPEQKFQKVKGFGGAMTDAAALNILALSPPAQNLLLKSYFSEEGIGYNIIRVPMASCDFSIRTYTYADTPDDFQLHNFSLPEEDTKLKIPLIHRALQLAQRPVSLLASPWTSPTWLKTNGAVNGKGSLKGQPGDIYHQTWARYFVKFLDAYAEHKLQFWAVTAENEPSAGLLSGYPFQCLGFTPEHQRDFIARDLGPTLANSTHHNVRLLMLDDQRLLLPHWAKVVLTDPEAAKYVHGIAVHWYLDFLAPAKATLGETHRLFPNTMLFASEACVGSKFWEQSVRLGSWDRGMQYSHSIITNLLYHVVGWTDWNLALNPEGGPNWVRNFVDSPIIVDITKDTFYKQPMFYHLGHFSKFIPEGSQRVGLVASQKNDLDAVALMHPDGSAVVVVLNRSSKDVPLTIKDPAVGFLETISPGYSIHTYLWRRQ

Potency, inactive:
CC1(C)NC(=O)N(CCOCCOc2cccc(Oc3ccccc3)c2)C1=O > 76.9 µM, CCOC(=O)c1cnc(SCC(=O)Nc2cc(OC)cc(OC)c2)nc1N > 76.9 µM, O=C(Nc1nc2ccccc2n1CCN1CCCC1)C1CCCCC1 > 76.9 µM, CN(C)c1nc(SCCOC(=O)c2ccccc2)nc(N(C)C)n1 > 76.9 µM, O=C(CCNC(=O)c1ccc(Br)o1)NC1CCCC1 > 76.9 µM, CCOC(=O)C1=C2SCCN2C(=O)C(C#N)C1(C)C (configuration not stated) > 76.9 µM, COc1ccc(N(C)C(=O)CCS(=O)(=O)c2cccc3nonc23)cc1 > 76.9 µM, O=C(c1ccco1)N1CCN(S(=O)(=O)c2ccc(S(=O)(=O)NC3CC3)cc2)CC1 > 76.9 µM, CCOC(=O)c1nn(-c2ccccc2)c(C(=O)OCC)c1N > 76.9 µM, COc1ccccc1OCC(=O)c1[nH]c(C)c(C(C)=O)c1C > 76.9 µM, COC(=O)c1nc2nc(C)cc(C(F)(F)F)n2n1 > 76.9 µM, CCOc1ccc(NC(=O)CSc2nnc(Cc3cccn3C)n2-c2ccc(OC)cc2)cc1 > 76.9 µM, CCn1c(CNc2ccc(F)cc2)nnc1SCC(=O)OC1CCCCC1, CC(C)CCNC(=O)CCCn1c(=O)[nH]c2ccc(Br)cc2c1=O > 76.9 µM, CCOc1ccccc1-c1nnc(SCC(=O)NC2CC3CCC2C3)n1CC (configuration not stated) > 76.9 µM, Cc1cccc(OCC(=O)NCCN2CCOCC2)c1 > 76.9 µM, CCN1CCN(C(=O)CN(Cc2ccccc2)S(C)(=O)=O)CC1 > 76.9 µM, COc1ccc(C)cc1NC(=O)CSc1nnnn1Cc1ccccc1 > 76.9 µM, Cc1ccc(-n2ncc3c(=O)[nH]c(SCC(=O)N4CCOCC4)nc32)cc1 > 76.9 µM, COC(=O)C1=C(N)Oc2cc(C)n(CCN3CCOCC3)c(=O)c2C1c1cccnc1 (configuration not stated) > 76.9 µM, Cc1ccc2nc(C(O)C(O)c3nc4ccc(C)cc4[nH]3)[nH]c2c1 (configuration not stated) > 76.9 µM, CCC(=O)Nc1c(C(=O)Nc2cccc(OC)c2)oc2ccccc12 > 76.9 µM, COCCN(Cc1cc2cc3c(cc2[nH]c1=O)OCO3)C(=O)c1cccs1 > 76.9 µM, Cc1nn(CC(O)Cn2c3c(c4ccccc42)CCN(C)C3=O)c(C)c1Br (configuration not stated) > 76.9 µM, COc1ccc2c(Cl)c(C(=O)NC3CCS(=O)(=O)C3)sc2c1 (configuration not stated) > 76.9 µM, CCOC(=O)c1cc2n(n1)C(C(F)(F)F)CC(C)N2 (configuration not stated) > 76.9 µM, CCNc1c2c3c(cccc3n(C)c1=O)C(=O)c1ccccc1-2 > 76.9 µM, Cn1c(=O)c2c(ncn2CC(=O)N(Cc2ccccc2)c2ccccn2)n(C)c1=O > 76.9 µM, c1ccc(-c2cccc(-c3ccccn3)n2)nc1 > 76.9 µM, COc1ccc(OC(C)C(=O)NC2CC(C)(C)NC(C)(C)C2)cc1 (configuration not stated) > 76.9 µM, O=C(c1cc2cc3ccc(Cl)cc3nc2o1)N1CCN(Cc2ccc3c(c2)OCO3)CC1 > 76.9 µM, O=C(c1cc2c(=O)oc3ccccc3c2s1)N1CCN(c2ncccn2)CC1 > 76.9 µM, CCc1ccc(CCC(=O)Nc2ccc(C)c(C)c2)o1 > 76.9 µM, CCOC(=O)c1sc(C)c2c1NC1(CCCCC1)NC2=O > 76.9 µM, Cn1c(=O)c2nnn(/N=C(\c3ccccc3)C3CC3)c2n(C)c1=O > 76.9 µM, CCOC(=O)c1ccc(NC(=O)CSc2nnc(COc3ccccc3OC)n2CC)cc1 > 76.9 µM, CC(C)NC(=O)C1CCN(C(=O)C(C(=O)c2ccccc2)n2cc(Cl)ccc2=O)CC1 (configuration not stated) > 76.9 µM, CC(=O)Nc1ccccc1Sc1ccccc1 > 76.9 µM, COc1cccc(C2/C(=C(\O)c3c(C)nc4c(C)cccn34)C(=O)C(=O)N2CCCN(C)C)c1OC (configuration not stated) > 76.9 µM, Nc1c(C(=O)OCC2CCCO2)c2nc3ccccc3nc2n1C1CCCC1 (configuration not stated) > 76.9 µM, N#Cc1cccc(NC(=O)Nc2cccs2)c1 > 76.9 µM, CN(CCCNC(=O)C1CCN(S(=O)(=O)N2CCC3(CC2)OCCO3)CC1)Cc1ccccc1 > 76.9 µM, COc1ccc(N2CCCn3c2nc2c3c(=O)n(CCN3CCOCC3)c(=O)n2C)cc1 > 76.9 µM, CCN(CC)c1ccc2c(c1)CCCN2 > 76.9 µM, O=C(c1noc2c1CCc1ccccc1-2)N1CCCc2ccccc21 > 76.9 µM, O=C(CS(=O)(=O)Cc1ccccc1)N1CCc2ccccc21 > 76.9 µM, O=C(CN1C2CCCC1CC(NC(=O)c1ccco1)C2)Nc1ccccc1C(F)(F)F (configuration not stated) > 76.9 µM, COc1ccc(-c2nc(SC)n(C(=O)c3ccco3)n2)cc1 > 76.9 µM, Cc1ccc(N(CC2=NCCN2)c2cccc(O)c2)cc1 > 76.9 µM, Cn1nnnc1SCc1nnc(-c2ccc(Cl)cc2)o1 > 76.9 µM, Cc1cccc(OCCC(=O)NCC(c2ccccc2)N(C)C)c1 (configuration not stated) > 76.9 µM, CN(C)c1ccc(NC(=O)Cn2ncn3c(cc4ccccc43)c2=O)cc1 > 76.9 µM, O=C(C1CC1)N1CCc2cc(Br)cc(S(=O)(=O)NCCN3CCOCC3)c21 > 76.9 µM, CCOC(=O)C(NCc1ccccn1)(NC(=O)c1cccnc1)C(F)(F)F (configuration not stated) > 76.9 µM, CCCCn1c(=O)[nH]c(=O)c2c1nc(CN1C(=O)c3ccccc3S1(=O)=O)n2CCC > 76.9 µM, CC1Cc2ccccc2N1S(=O)(=O)c1cccc(C(=O)NC2CC2)c1 (configuration not stated) > 76.9 µM, Cc1cc(NC(=O)CSc2nc3ccsc3c(=O)n2Cc2ccccn2)n[nH]1 > 76.9 µM
